Test results reported in US8129532B2, “Amino(oligo)thiophene dyes, preparation thereof, and optical methods of use” (The University of Connecticut, priority 2007, dated 2012).
Several values for one entry are separate records, joined by “and”; a condition that tells them apart may be missing. Equal entries are not always repeated. For part of these data: At least one read-out could not be matched to a standard name with certainty. For part of these data: For at least one compound, name, drawing or mass did not settle the structure. Some entries share one result that the patent states for a list of compounds.

Tests used:
[1] = One-photon absorption and emission spectra in multilamellar lipid vesicles, water and ethanol; format: physicochemical; settings: soybean multi-lamellar lipid vesicles
Excerpt: […] The column indicating relative signal change for one-photon fluorescence also lists the excitation light source used and the lower bounds of the long-pass emission detected.
Absorption and emission spectra were obtained for a series of dyes with different acceptors: pyridinium (PY-1261), quinolinium (PY-212), and acridinium (PY-2240).

[2] = tested on: NIE-115 mouse neuroblastoma; assay: Time-dependence (kinetics) of SHG and 2PF signal change after voltage-clamp step; format: cell-based; settings: for SHG Kinetics (exponential time constant): time resolution 5 ms
Excerpt: (§1) For full details of our non-linear imaging microscope, we refer the reader to previously published descriptions. A. C. Millard, P. J. Campagnola, W. Mohler, A. Lewis, and L. M. Loew, “Second Harmonic Imaging Microscopy,” Meth. Enzymol. 361, 47-69 (2003); Millard, A. C., L. Jin, and L. M. Loew, “Second Harmonic Generation Imaging Microscopy with a High Power Ultrafast Fiber Laser,”Commercial and Biomedical Applications of Ultrafast Lasers. 5714-5716, 92-98 (2005); A. C. Millard, L. Jin, M.-D. Wei, J. P. Wuskell, A. Lewis, and L. M. Loew, “Sensitivity of Second Harmonic Generation from Styryl Dyes to Transmembrane Potential,” Biophys. J. 86, 1169-1176 (2004). Our current microscope combines a Fluoview (Olympus) scan-head and an Axiovert (Zeiss) inverted microscope constructed for multiple imaging methodologies including wide-field, one-photon excitation fluorescence imaging, as well as SHG and 2PF imaging. Our laser sources include a Mira (Coherent) Ti:sapphire laser and a Femtopower (Fianium) fiber laser operating at 1064 nm. Millard, A. C., L. Jin, and L. M. Loew, “Second Harmonic Generation Imaging Microscopy with a High Power Ultrafast Fiber Laser,”Commercial and Biomedical Applications of Ultrafast Lasers. 5714-5716, 92-98 (2005). For excitation, we routinely use an IR-Achroplan (Zeiss) 40×, 0.8 NA water-immersion objective though for shorter wavelengths we also use an A-Plan (Zeiss) 40×, 0.65 NA air objective. Fluorescence is imaged (for linear imaging) or collected (for non-linear imaging) back through the excitation objective, while SHG is collected in the forward, transmitted light direction by a condenser, either 0.8 NA or 0.55 NA (Zeiss). For optimal collection, the numerical aperture of the condenser should be at least 1/√2 of the numerical aperture of the excitation objective (L. Moreaux, O. Sandre, S. Charpak, M. Blanchard-Desce, and J. Mertz, “Coherent Scattering in Multi-Harmonic Light Microscopy,” Biophys. J. 80, 1568-1574 (2001); L. Moreaux, O. Sandre, and J. Mertz. “Membrane Imaging by Second Harmonic Generation Microscopy,” J. Opt. Soc. Am. B. 17, 1685-1694 (2000)), though in practice a condenser of slightly lower numerical aperture will often suffice. Since the wavelength of second harmonic light is precisely half that of the excitation light, the choice of filter for SHG imaging is greatly simplified and the primary concern is the blocking of the excitation light that is also transmitted through the sample as well as fluorescence that is emitted forwards.
NIE-115 mouse neuroblastoma were cultured in DMEM with 10% fetal bovine serum and 1% antibiotic-antimycotic (Invitrogen, Carlsbad, Calif.) in a 60 mm plastic dish (353002, Becton Dickinson, Franklin Lakes, N.J.). […]

[3] = tested on: NIE-115 mouse neuroblastoma; assay: SHG and 2PF voltage sensitivity, 50 mV step, slow switching protocol on patch-clamped neuroblastoma cell; format: cell-based; settings: excitation 1064 nm, 50 mV voltage change; for SHG Change: SHG collected at 532 nm; for 2PF Change, 615-665 nm: emission 615-665 nm; for 2PF Change, 750-850 nm: emission 750-850 nm
Excerpt: as §1
NIE-115 mouse neuroblastoma were cultured in DMEM with 10% fetal bovine serum and 1% antibiotic-antimycotic (Invitrogen, Carlsbad, Calif.) in a 60 mm plastic dish (353002, Becton Dickinson, Franklin Lakes, N.J.). The culture was maintained at 37° C. with 5% CO2 for a period of 48 hours prior to experimentation.
For experimentation the growth medium was replaced with 3 mL of Earle's Balanced Salt Solution (EBSS, Sigma, St. Louis, Mo.) with 20 mM HEPES (Merck Biosciences AG, Laufelfingen, Switzerland). The internal buffer, injected into the patch pipette, was a potassium aspartate (140 mM, Sigma, St. Louis, Mo.), sodium chloride (5 mM, Sigma, St. Louis, Mo.) and HEPES (10 mM) solution at a pH of 7.35. The pH was adjusted with potassium hydroxide and hydrochloric acid.
For characterizing the voltage-sensitivity of SHG and 2PF, we used a slow (˜0.1 Hz) switching protocol as previously described (A. C. Millard, P. J. Campagnola, W. Mohler, A. Lewis, and L. M. Loew, “Second Harmonic Imaging Microscopy,” Meth. Enzymol. 361, 47-69 (2003); Millard, A. C., L. Jin, and L. M. Loew, “Second Harmonic Generation Imaging Microscopy with a High Power Ultrafast Fiber Laser,” Commercial and Biomedical Applications of Ultrafast Lasers. 5714-5716, 92-98 (2005); A. C. Millard, L. Jin, M.-D. Wei, J. P. Wuskell, A. Lewis, and L. M. Loew, “Sensitivity of Second Harmonic Generation from Styryl Dyes to Transmembrane Potential,” Biophys. J. 86, 1169-1176 (2004)) with a 50 mV step. […]

[4] = One-photon fluorescence relative signal change per 100 mV; settings: excitation / long-pass emission (nm) given
Excerpt: The left-most data columns of Table 1 are the absorption and emission maxima for one photon fluorescence in soybean multi-lamellar lipid vesicles used to mimic the membrane environment. The column indicating relative signal change for one-photon fluorescence also lists the excitation light source used and the lower bounds of the long-pass emission detected.

| SMILES | 1PF Abs. Max [1] | 1PF Em. Max [1] | SHG kinetics, in words [2] | SHG Kinetics (exponential time constant) [2] | SHG Change [3] | 2PF Change, 615-665 nm [3] | 2PF Change, 750-850 nm [3] | 1PF Change (ΔF/F-100 mv) [4] | SHG Kinetics (exponential time constant) ([2]; listed as di-4-ANEQPTMA) | SHG Kinetics (exponential time constant) ([2]; listed as di-4-ANHTQPTMA) |
| --- | --- | --- | --- | --- | --- | --- | --- | --- | --- | --- |
| CCN(CC)c1ccc(-c2ccc(/C=C/c3cc[n+](CCC[N+](C)(C)C)cc3)s2)s1 [PY-1280] | 547 nm | 690 nm | significantly slower | 109 ± 30 ms | 10.13 ± 0.88 %/50 mV | −6.12 ± 0.87 %/50 mV | 5.77 ± 1.22 %/50 m | 1.1E−001; 640/>715 ΔF/F-100 mv | – | – |
| CCN(CC)c1ccc(-c2ccc(/C=C/c3cc[n+](CCC[N+](CC)(CC)CC)cc3)s2)s1 [PY-1261, Di-2-BTEPPTEA] | – | – | – | – | ~10 %/50 mV and 9.56 ± 0.42 %/50 mV | −2.57 ± 0.24 %/50 mV | 5.22 ± 0.28 %/50 m | – | – | – |
| CCC[N+](CCC)(CCC)CCC[n+]1ccc(/C=C/c2ccc(-c3ccc(N(CC)CC)s3)s2)cc1 [PY-1278] | – | – | – | – | ~10 %/50 mV and 10.70 ± 0.59 %/50 mV | −3.86 ± 0.53 %/50 mV | 6.52 ± 0.76 %/50 m | – | – | – |
| CC[N+](CC)(CC)CCC[n+]1ccc(/C=C/c2ccc(-c3ccc(N(C)C)s3)s2)cc1 [PY-1282] | – | – | – | – | 11.7 %/50 mV and 11.64 ± 0.60 %/50 mV | 0.29 ± 0.39 %/50 mV | 8.78 ± 1.08 %/50 m | – | – | – |
| CC[N+](CC)(CC)CCC[n+]1ccc(/C=C/c2ccc(-c3ccc(N4CCCC4)s3)s2)cc1 [PY-1274] | – | – | – | – | 5.65 ± 0.45 %/50 mV | −4.20 ± 0.13 %/50 mV | 3.12 ± 0.18 %/50 m | – | – | – |
| CCCCN(CCCC)c1ccc2cc(/C=C/C=C/c3cc[n+](CCC[N+](C)(C)C)c4ccccc34)ccc2c1.[Br-].[Br-] [di-4-ANBDQPQ, Di-4-ANBDQPQ, reference compound] | – | – | – | – | 3.55 ± 0.55 %/50 mV | −6.61 ± 0.88 %/50 mV | 4.32 ± 0.57 %/50 m | – | – | – |
| CCCCN(CCCC)c1ccc(-c2ccc(/C=C/c3cc[n+](CCC[N+](CC)(CC)CC)cc3)s2)s1 [PY-1266, Di-4-BTEPPTEA] | – | – | – | – | 3.75 ± 0.33 %/50 mV | −4.80 ± 0.53 %/50 mV | 2.25 ± 0.47 %/50 m | – | – | – |
| CCCCN(CCCC)c1ccc2cc(/C=C/c3cc[n+](CCC[N+](C)(C)C)c4ccccc34)ccc2c1.[Br-].[Br-] [di-4-ANEQPQ, reference compound] | – | – | – | – | 3.84 ± 0.38 %/50 mV | 0.79 ± 0.37 %/50 mV | 5.03 ± 0.26 %/50 m | – | exceeds 30 ms | – |
| CCCCN(CCCC)c1ccc2cc(/C=C/C=C/C=C/c3cc[n+](CCC[N+](C)(C)C)c4ccccc34)ccc2c1.[Br-].[Br-] [di-4-ANHTQPQ, reference compound] | – | – | – | – | 4.15 ± 0.28 %/50 mV | −7.51 ± 0.73 %/50 mV | 2.83 ± 0.45 %/50 m | – | – | exceeds 30 ms |
| CCCN(CCC)c1ccc(-c2ccc(/C=C/c3cc[n+](CCC[N+](CC)(CC)CC)cc3)s2)s1 [PY-1286, Di-3-BTEPPTEA] | – | – | – | – | 8.09 ± 0.42 %/50 mV | −5.65 ± 0.50 %/50 mV | 3.51 ± 0.66 %/50 m | – | – | – |
| CCCCN(CCCC)c1ccc(/C=C/c2cc[n+](CCC[N+](CC)(CC)CC)cc2)s1 [PY-1284] | – | – | – | – | 6.18 ± 0.68 %/50 mV | 6.72 ± 0.58 %/50 mV | – | – | – | – |
